# The list shows a part of the results.
# Tests used:
# Test in all cases: glycan array binding signal (z-score within array); higher = stronger binding
# Settings in all cases: glycan notation: IUPAC condensed, linker removed
# [1] = target: Man(a1-3)[Man(a1-6)]Man(a1-6)[Man(a1-2)Man(a1-3)]Man(b1-4)GlcNAc(b1-4)GlcNAc
# Summary of the method: (§1)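 The Consortium for Functional Glycomics database supplied 3228 glycan arrays, of which those lacking an available protein sequence were dropped. The binding signal, a within-array Z-score, was averaged across arrays of the same protein sequence and across linkers. Negative scores can be read as non-binding.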
# [2] = target: Man(a1-3)[Man(a1-6)]Man(a1-6)[Man(a1-3)]Man
# Summary of the method: as §1
# [3] = target: Man(a1-3)[Man(a1-6)]Man(a1-6)[Man(a1-3)]Man(b1-4)GlcNAc(b1-4)GlcNAc
# Summary of the method: as §1
# [4] = target: Man(a1-3)[Man(a1-6)]Man(b1-4)GlcNAc(b1-4)GlcNAc
# Summary of the method: as §1
# [5] = target: Man(a1-6)Man
# Summary of the method: as §1
# [6] = target: Man(b1-4)GlcNAc
# Summary of the method: as §1
# [7] = target: Neu5Ac(a2-3)Gal
# Summary of the method: as §1
# [8] = target: Neu5Ac(a2-3)Gal(b1-3)GalNAc
# Summary of the method: as §1
# [9] = target: Neu5Ac(a2-3)Gal(b1-3)GalNAc(b1-3)Gal(a1-4)Gal(b1-4)Glc
# Summary of the method: as §1
# [10] = target: Neu5Ac(a2-3)Gal(b1-3)GalNAc(b1-3)Gal(b1-4)GlcNAc
# Summary of the method: as §1
# [11] = target: Neu5Ac(a2-3)Gal(b1-3)GalNAc(b1-4)[Neu5Ac(a2-3)]Gal(b1-4)Glc
# Summary of the method: as §1
# [12] = target: Neu5Ac(a2-3)Gal(b1-3)GalNAc6S
# Summary of the method: as §1
# [13] = target: Neu5Ac(a2-3)Gal(b1-3)GlcNAc
# Summary of the method: as §1
# [14] = target: Neu5Ac(a2-3)Gal(b1-3)GlcNAc(b1-3)Gal(b1-3)GlcNAc
# Summary of the method: as §1
# [15] = target: Neu5Ac(a2-3)Gal(b1-3)GlcNAc6S
# Summary of the method: as §1
# [16] = target: Neu5Ac(a2-3)Gal(b1-3)[Fuc(a1-4)]GlcNAc
# Summary of the method: as §1
# [17] = target: Neu5Ac(a2-3)Gal(b1-3)[Fuc(a1-4)]GlcNAc(b1-3)Gal(b1-4)[Fuc(a1-3)]GlcNAc
# Summary of the method: as §1
# [18] = target: Neu5Ac(a2-3)Gal(b1-3)[Neu5Ac(a2-3)Gal(b1-4)]GlcNAc
# Summary of the method: as §1
# [19] = target: Neu5Ac(a2-3)Gal(b1-3)[Neu5Ac(a2-6)]GalNAc
# Summary of the method: as §1
# [20] = target: Neu5Ac(a2-3)Gal(b1-4)Glc
# Summary of the method: as §1
# [21] = target: Neu5Ac(a2-3)Gal(b1-4)GlcNAc
# Summary of the method: as §1
# [22] = target: Neu5Ac(a2-3)Gal(b1-4)GlcNAc(b1-2)Man(a1-3)[GlcNAc(b1-2)Man(b1-4)GlcNAc(b1-2)Man(a1-6)]Man(b1-4)GlcNAc(b1-4)GlcNAc
# Summary of the method: as §1
# [23] = target: Neu5Ac(a2-3)Gal(b1-4)GlcNAc(b1-2)Man(a1-3)[Neu5Ac(a2-6)Gal(b1-4)GlcNAc(b1-2)Man(a1-6)]Man(b1-4)GlcNAc(b1-4)GlcNAc
# Summary of the method: as §1
# [24] = target: Neu5Ac(a2-3)Gal(b1-4)GlcNAc(b1-3)Gal(b1-3)GlcNAc
# Summary of the method: as §1
# [25] = target: Neu5Ac(a2-3)Gal(b1-4)GlcNAc(b1-3)Gal(b1-4)GlcNAc
# Summary of the method: as §1
# [26] = target: Neu5Ac(a2-3)Gal(b1-4)GlcNAc(b1-3)Gal(b1-4)GlcNAc(b1-3)Gal(b1-4)GlcNAc
# Summary of the method: as §1
# [27] = target: Neu5Ac(a2-3)Gal(b1-4)GlcNAc(b1-3)Gal(b1-4)[Fuc(a1-3)]GlcNAc
# Summary of the method: as §1
# [28] = target: Neu5Ac(a2-3)Gal(b1-4)GlcNAc(b1-6)[Gal(b1-3)]GalNAc
# Summary of the method: as §1
# [29] = target: Neu5Ac(a2-3)Gal(b1-4)GlcNAc(b1-6)[Neu5Ac(a2-3)Gal(b1-3)]GalNAc
# Summary of the method: as §1
# [30] = target: Neu5Ac(a2-3)Gal(b1-4)GlcNAc6S
# Summary of the method: as §1
# [31] = target: Neu5Ac(a2-3)Gal(b1-4)[Fuc(a1-3)]GlcNAc
# Summary of the method: as §1
# [32] = target: Neu5Ac(a2-3)Gal(b1-4)[Fuc(a1-3)]GlcNAc(b1-3)Gal
# Summary of the method: as §1
# [33] = target: Neu5Ac(a2-3)Gal(b1-4)[Fuc(a1-3)]GlcNAc(b1-3)Gal(b1-4)GlcNAc
# Summary of the method: as §1
# [34] = target: Neu5Ac(a2-3)Gal(b1-4)[Fuc(a1-3)]GlcNAc(b1-3)Gal(b1-4)[Fuc(a1-3)]GlcNAc(b1-3)Gal(b1-4)[Fuc(a1-3)]GlcNAc
# Summary of the method: as §1
# [35] = target: Neu5Ac(a2-3)Gal(b1-4)[Fuc(a1-3)]GlcNAc(b1-6)[Gal(b1-3)]GalNAc
# Summary of the method: as §1
# [36] = target: Neu5Ac(a2-3)Gal(b1-4)[Fuc(a1-3)]GlcNAc6S
# Summary of the method: as §1
# [37] = target: Neu5Ac(a2-3)Gal6S(b1-4)GlcNAc
# Summary of the method: as §1
binder,measurement,setting,value
Surfactant Protein D (Human); Neck + Carbohydrate Recognition Domain (NCRD) (Homo sapiens) (protein) MLLFLLSALVLLTQPLGYLEAEMKTYSHRTMPSACTLVMCSSVESGLPGRDRDGREGPRGEKGDPGLPGAAGQAGMPGQAGPVGPKGDNGSVGEPGPKGDTGPSGPPGPPGVPGPAGREGALGKQGNIGPQGKPGPKGEAGPKGEVGAPGMQGSAGARGLAGPKGERGVPGERGVPGNTGAAGSAGAMGPQGSPGARGPPGLKGDKGIPGDKGAKGESGLPDVASLRQQVEALQGQVQHLQAAFSQYKKVELFPNGQSVGEKIFKTAQFVKPFTEAQLLCTQAGGQLASPRSAAENAALQQLVVAKNEAAFLSMTDSKTEGKFTYPTGESLVYSNWAPGEPNDDGGSEDCVEIFTNGKWNDRACGEKRLVVCEF,glycan array binding signal (z-score),[1],4.68
same,glycan array binding signal (z-score),[2],3.08
same,glycan array binding signal (z-score),[3],4.68
same,glycan array binding signal (z-score),[4],1.08
same,glycan array binding signal (z-score),[5],0.063
same,glycan array binding signal (z-score),[6],0.329
same,glycan array binding signal (z-score),[7],-0.243
same,glycan array binding signal (z-score),[8],-0.171
same,glycan array binding signal (z-score),[9],-0.281
same,glycan array binding signal (z-score),[10],-0.261
same,glycan array binding signal (z-score),[11],-0.252
same,glycan array binding signal (z-score),[12],-0.228
same,glycan array binding signal (z-score),[13],-0.23
same,glycan array binding signal (z-score),[14],-0.198
same,glycan array binding signal (z-score),[15],-0.228
same,glycan array binding signal (z-score),[16],-0.281
same,glycan array binding signal (z-score),[17],0.1
same,glycan array binding signal (z-score),[18],-0.275
same,glycan array binding signal (z-score),[19],-0.246
same,glycan array binding signal (z-score),[20],-0.059
same,glycan array binding signal (z-score),[21],-0.267
same,glycan array binding signal (z-score),[22],-0.092
same,glycan array binding signal (z-score),[23],-0.264
same,glycan array binding signal (z-score),[24],-0.24
same,glycan array binding signal (z-score),[25],-0.21
same,glycan array binding signal (z-score),[26],-0.279
same,glycan array binding signal (z-score),[27],-0.259
same,glycan array binding signal (z-score),[28],-0.27
same,glycan array binding signal (z-score),[29],-0.162
same,glycan array binding signal (z-score),[30],-0.26
same,glycan array binding signal (z-score),[31],-0.275
same,glycan array binding signal (z-score),[32],-0.278
same,glycan array binding signal (z-score),[33],-0.174
same,glycan array binding signal (z-score),[34],-0.149
same,glycan array binding signal (z-score),[35],0.276
same,glycan array binding signal (z-score),[36],-0.241
same,glycan array binding signal (z-score),[37],-0.253

# — the supplement of paper PMC8728848
